Results published in PubChem BioAssay AID1645882 (National Center for Advancing Translational Sciences (NCATS), 2021).
Out of some 16,000 compounds screened, about 120 (0.75%) were called active. Roughly 4% stayed inconclusive and do not appear here. Calls come from the whole dose curve; as a rule, active = well fitted inhibition curve with a large enough effect; inconclusive = small, poorly fitted or top-dose-only effect; inactive = no such curve, though single readings can be large or run the other way. The list shows a part of the results. Where a SMILES comes first, the peptide text is derived from it. The star is where a group is joined. CH2Cl = ClC*

biological target: Rap guanine nucleotide exchange factor 3 (Homo sapiens) (UniProt O95398); test: Validation qHTS for antagonist of cAMP-regulated guanine nucleotide exchange factor 3 (EPAC1); details: EPAC1 Rap1B-BODIPY-GDP exchange, fluorescence; activity change, negative = inhibition: at the top concentration; note: nearly all actives have a fitted effect of over 75% in size
UniProt O95398, sequence (O95398 whole entry, looked up): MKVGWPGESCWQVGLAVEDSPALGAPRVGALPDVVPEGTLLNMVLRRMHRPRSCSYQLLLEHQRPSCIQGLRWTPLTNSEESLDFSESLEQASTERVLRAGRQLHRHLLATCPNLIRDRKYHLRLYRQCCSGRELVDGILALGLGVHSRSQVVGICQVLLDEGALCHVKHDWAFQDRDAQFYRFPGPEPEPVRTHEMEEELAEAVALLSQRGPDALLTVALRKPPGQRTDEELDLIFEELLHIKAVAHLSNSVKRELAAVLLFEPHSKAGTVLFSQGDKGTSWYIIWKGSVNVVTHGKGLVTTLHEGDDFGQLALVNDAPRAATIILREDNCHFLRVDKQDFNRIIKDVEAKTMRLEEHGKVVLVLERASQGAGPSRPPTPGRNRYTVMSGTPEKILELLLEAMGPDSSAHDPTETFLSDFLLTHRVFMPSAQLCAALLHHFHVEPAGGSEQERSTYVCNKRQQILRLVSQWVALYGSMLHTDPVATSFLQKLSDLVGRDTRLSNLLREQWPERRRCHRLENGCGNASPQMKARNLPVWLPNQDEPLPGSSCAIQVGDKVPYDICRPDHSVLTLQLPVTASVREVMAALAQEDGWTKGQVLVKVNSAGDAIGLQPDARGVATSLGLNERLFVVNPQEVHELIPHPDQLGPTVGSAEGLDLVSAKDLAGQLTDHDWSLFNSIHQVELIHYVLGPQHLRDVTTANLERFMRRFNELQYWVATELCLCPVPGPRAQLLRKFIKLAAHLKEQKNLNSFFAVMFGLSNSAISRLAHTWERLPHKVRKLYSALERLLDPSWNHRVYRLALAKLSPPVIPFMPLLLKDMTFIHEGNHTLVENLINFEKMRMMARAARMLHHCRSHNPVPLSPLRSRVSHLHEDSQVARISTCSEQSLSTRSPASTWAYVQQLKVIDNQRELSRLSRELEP
Text: Assay Provider (PI): Xiaodong Cheng Ph.D.
The University of Texas Medical Branch, […], TX
In multi-cellular eukaryotic organisms, the effects of cAMP are transduced by two ubiquitously-expressed intracellular cAMP receptors, the classic protein kinase A/cAMP-dependent protein kinase (PKA/cAPK) and the more recently discovered exchange protein directly activated by cAMP/cAMP-regulated guanine nucleotide exchange factor (EPAC/cAMP-GEF). Both PKA and EPAC are ubiquitously expressed in all tissues, and an increase in intracellular cAMP levels will lead to the activation of both PKA and EPAC. Therefore, careful dissections of the individual role and relative contribution of EPAC and PKA within the overall cAMP signaling in various model systems are critical for further elucidating the mechanism of cAMP signaling. To date no EPAC-specific antagonists and agonist, as well as isoform-specific agonists have been reported, and developing EPAC-specific pharmacological probes to determine the physiological functions that EPAC play in the overall cAMP-mediated signaling remains a major challenge within the research field. Furthermore, identified regulators of EPAC may lead to new mechanism-based therapeutic strategies specifically targeting the EPAC / cAMP-signaling components as EPAC has been implicated to play important roles in major human pathological conditions such as diabetes, heart disease, and cancer.
This qHTS will be used to screen the Molecular Libraries Small Molecule Repository (MLSMR) as a concentration-titration series using the NCGC unique quantitative screening (qHTS) platform to find activators for EPAC1. In addition, this assay will also be used as a counterscreen for the EPAC2 qHTS. This fluorescent based assay is developed and validated for EPAC1 that measures exchange using EPAC effector Rap1 complex with BODIPY-GDP, a GDP analog with a tethered fluorophores. Activators are identified by monitoring the change in fluorescence signal as the exchanged free BODIPY-GDP has a reduced fluorescence compared to Rap1-bound BODIPY-GDP. Increase in signal (activation) is the desired outcome for the EPAC1 agonist while no activity in this assay is desired for the EPAC2 agonist counterscreen.
[1] de Rooij, J., Zwartkruis, F. J., Verheijen, M. H., Cool, R. H., Nijman, S. M., Wittinghofer, A., and Bos, J.L. (1998) Nature 396, 474-477.
Briefly, three uL of reagents (100 nM EPAC1, 250 nM RAP1B-BODIPY-GDP, 50 uM GDP) were dispensed into a 1536-well Greiner black solid-bottom medium binding assay plate. Controls and test compounds (23 nL) were transferred to the plate via a Kalypsys pin tool equipped with a 1536-pin array. The plates were centrifuged at 1,000 rpm for 15 seconds followed by 5 minute incubation at room temperature. The assay plates were read at 5 minute intervals for 30 minutes in the ViewLux plate reader using 480nm excitation and 540nm emission filters. The results were normalized to the […] positive control ATA and DMSO.
Potency is the fitted concentration of half-maximal effect.

SMILES	activity change, negative = inhibition	Potency
CN[C@@H](C)Cc1ccccc1	inactive: 18.5% [at 320 µM]	–
CN1CCc2cc(O)cc3c2[C@H]1Cc1ccc(O)c(O)c1-3	inactive: 4.22% [at 75.8 µM]	–
CC(NC(C)(C)C)C(=O)c1cccc(Cl)c1 (stereo unspecified)	inactive	–
CN(C)CCCCCCN(C)C (tested in a mixture with another compound)	inactive: 7.39%	–
O=C(O)CCCO	inactive: 18.9% [at 320 µM]	–
COc1ccc(OC)c(C[C@H](C)N)c1	inactive: 32% [at 320 µM]	–
NCc1cccnc1	inactive: 8.19%	–
CCCCC/C=C\C/C=C\C/C=C\C/C=C\CCCCCC(=O)NCCO	inactive: 5.39% [at 15.3 µM]	–
C[C@H](N)Cc1cccc(C(F)(F)F)c1	inactive: -7.79% [at 75.8 µM]	–
[S]=[Sb](=[S])[S][Sb](=[S])=[S]	inactive: 18.7%	–
Cc1cc(C)cc(C(=O)OC2C[C@H]3CC[C@@H](C2)N3C)c1 (stereo partly specified)	inactive	–
CN(C)[C@@H]1C(=O)C(C(N)=O)=C(O)[C@@]2(O)C(=O)C3=C(O)c4c(O)cccc4[C@@](C)(O)[C@H]3C[C@@H]12	inactive: 22.2% [at 75.8 µM]	–
CCCC[N+]12C3CC(C(CC)[C@H]1O)[C@@H]1C(O)C4(C[C@@H]12)c1ccccc1N(C)C34 (stereo partly specified)	inactive: 24.3%	–
NC[C@H](CC(=O)O)c1ccc(Cl)cc1	inactive: 5.43%	–
C=CCSSCC=C	inactive: 7.17%	–
CC(C)NC(=O)N1CCC2(CCNCC2)CC1	inactive: 19.2%	–
O[C@@H]1[C@H](O)[C@H]2[C@@H](O)CCN2C[C@@H]1O	inactive: 4.73%	–
NCC(CC(=O)O)c1ccc(Cl)cc1 (stereo unspecified)	inactive	–
O=C1OC(c2ccc(O)c(S(=O)(=O)O)c2)(c2ccc(O)c(S(=O)(=O)O)c2)c2c(Br)c(Br)c(Br)c(Br)c21	–	active: 14.1 µM
CC(=O)O[C@H]1CC[C@H]2[C@@H]3CCC4=CC(=O)CCC4=C3C=C[C@]12C	inactive: 6.34%	–
CC(C)CN1CC2(CCN(C(=O)c3ccncc3)CC2)C1	inactive: 9.72%	–
O=c1cccc2n1CC1CNC[C@H]2C1	inactive	–

SMILES	activity change, negative = inhibition	Potency
CC(C)[C@]12O[C@H]1[C@@H]1O[C@]13[C@]1(O[C@H]1C[C@H]1C4=C(CC[C@@]13C)C(=O)OC4)[C@@H]2O	inactive: 1.76% [at 201 µM]	–
CCOC(=O)CC(SP(=S)(OC)OC)C(=O)OCC (stereo unspecified)	inactive	–
CN(C(=O)Cc1ccc(Cl)c(Cl)c1)C(CN1CCCC1)c1cccc(N=C=S)c1 (stereo unspecified)	inactive: 5.58%	–
CC(C)=C[C@@H]1[C@@H](C(=O)OCc2coc(Cc3ccccc3)c2)C1(C)C	inactive: 0.96%	–
CCCN(CCC)CCc1c[nH]c2ccccc12	inactive: 14.5% [at 320 µM]	–
CN1CC[C@]23c4c5ccc(O)c4O[C@H]2[C@@H](O)C=C[C@H]3[C@H]1C5	inactive: -7.26% [at 320 µM]	–
CN(CCCC(=O)c1cccnc1)N=O	inactive: 20.4%	–
O=[N+]([O-])c1cc([N+](=O)[O-])c2ccccc2c1	inactive: 46.9% [at 320 µM]	–
CC(N)Cc1ccc(O)cc1 (stereo unspecified)	inactive: 6.83%	–
C[Se]C[C@H](N)C(=O)O	inactive: -3.63% [at 75.8 µM]	–
O=C1CN(O)C(c2ccccc2)=c2cc(Cl)ccc2=N1	inactive: 7.51%	–
CCOC(=O)c1ncn2c1[C@@H]1CCCN1C(=O)c1cc(OC)ccc1-2	inactive: -3.12% [at 75.8 µM]	–
NC(N)=Nc1ccc2[nH]c3c(c2c1)C[C@@]1(O)[C@H]2Cc4ccc(O)c5c4[C@@]1(CCN2CC1CC1)[C@H]3O5	inactive: 1.25% [at 75.8 µM]	–
c1ccc(CN2CC[C@@]3(CCCNC3)C2)cc1	inactive: 20.1%	–
c1cncc(C2CCCN2)c1 (stereo unspecified)	inactive: 18.3%	–
COc1cc([N+](=O)[O-])cc([N+](=O)[O-])c1N	inactive: 20.3%	–
CCC1(C2=NCCN2)Cc2ccccc2O1 (stereo unspecified)	inactive	–
COc1cc(C2c3cc4c(c(O)c3CC3COC(=O)C32)OCO4)cc(OC)c1OC (stereo unspecified)	inactive: 8.82%	–
C[C@H]1O[C@@H](O[C@H]2[C@@H](O)C[C@H](O[C@H]3[C@@H](O)C[C@H](O[C@H]4CC[C@]5(C)C6CC[C@]7(C)[C@@H](C8=CC(=O)OC8)CC[C@]7(O)C6CC[C@@H]5C4)O[C@@H]3C)O[C@@H]2C)C[C@H](O)[C@@H]1O (stereo partly specified)	inactive: 2.92%	–
CC[C@@H](CO)NC(=O)[C@@H]1C=C2c3cccc4[nH]cc(c34)C[C@H]2N(C)C1	inactive	–
CCCCOC(=O)c1ccccc1C(=O)OCCCC	inactive: 4.76%	–
C/C(=C\C=C/[C@@H](C)C(=O)O)[C@H]1CN[C@H](C(=O)O)[C@@H]1CC(=O)O	inactive: -10.8%	–

SMILES	activity change, negative = inhibition	Potency
CCC1(CCC(C)C)C(=O)NC(=O)NC1=O	inactive: -0.724% [at 320 µM]	–
CC(C)(C)c1cc(C=C(C#N)C#N)cc(C(C)(C)C)c1O	inactive	–
CC(C)[C@@H]1CN[C@H](C(=O)O)[C@@H]1CC(=O)O	inactive: -13.7%	–
O=[N+]([O-])c1ccc(O[C@@H]2O[C@H](CO)[C@@H](O)[C@H](O)[C@H]2F)c([N+](=O)[O-])c1	inactive: -9.64% [at 75.8 µM]	–
O=C(O)c1nn(Cc2ccc(Cl)cc2Cl)c2ccccc12	inactive	–
CNCCc1cnc[nH]1	inactive	–
O=C(O)C(Cl)Cl	inactive	–
O=C(NC(=O)c1c(F)cccc1F)Nc1ccc(Cl)cc1	inactive: 6.06%	–
C[C@@H]1C[C@@H]([C@H](O)CC2CC(=O)NC(=O)C2)C(=O)[C@@H](C)C1	inactive	–
CN1C(=O)COc2c(C(=O)N[C@@H]3CN4CCC3CC4)cc(Cl)cc21	inactive: 6.92%	–
COC[C@H]([C@@H](O)[C@@H](O)C(=O)NCC[C@@H](C)c1nc(/C=C/C[C@H]2OC3(C[C@H](O)[C@H]2C)OC([C@@H](C[C@@H](O)[C@@H](C)[C@@H](O)[C@@H](C)/C=C(C)/C(C)=C/C=C/C(C)=C\C#N)OC)[C@@H](OP(=O)(O)O)C3(C)C)co1)N(C)C (stereo partly specified)	inactive: 27.7% [at 7.83 µM]	–
C[C@H](N)C(=O)c1ccccc1	inactive	–
COc1cc(C(O)CN)ccc1O (stereo unspecified)	inactive: 4.53% [at 75.8 µM]	–
c1cncc([C@@H]2CCCCN2)c1	inactive: 22.7%	–
CN1[C@@H]2CC[C@H]1CC(OC(=O)c1cc(Cl)cc(Cl)c1)C2 (stereo partly specified)	inactive	–
CC(C)(O)[C@@H]1[C@H]2OC(=O)[C@@H]1[C@]1(O)C[C@H]3O[C@]34C(=O)O[C@H]2[C@]14C	inactive	–
C[C@H](N)C(=O)N[C@@H](C)C(=O)N[C@@H](Cc1ccccc1)C(=O)CCl (H-Ala-Ala-Phe-CH2Cl)	inactive: 29.8% [at 201 µM]	–
C[C@]12CC[C@H](O)C[C@H]1CC[C@@H]1[C@@H]2CC[C@]2(C)[C@@H](c3ccc(=O)oc3)C[C@H]3O[C@]132	inactive: 11%	–
COc1cc2c(c(OC)c1OC)-c1ccc(O)c(=O)cc1C(NC(C)=O)CC2 (stereo unspecified)	inactive: 19.8%	–
Clc1ccc(Cl)cc1	inactive: 15.5%	–
Cn1sc(Cl)cc1=O	inactive: 5.01%	–
C[C@H]1O[C@@H](O[C@H]2[C@@H](O)C[C@H](O[C@H]3[C@@H](O)C[C@H](O[C@H]4CC[C@@]5(C)[C@H](CC[C@@H]6[C@@H]5CC[C@]5(C)[C@@H](C7=CC(=O)OC7)CC[C@]65O)C4)O[C@@H]3C)O[C@@H]2C)C[C@H](O)[C@@H]1O	inactive: 23.7%	–
